From patent US20150160214A1 (MAYO FOUNDATION FOR MEDICAL EDUCATION AND RESEARCH, published 2015)

B1: Recombinant human vWF A1-1261 ([…]), N-terminal truncated variant (ligand)
chain: not shown
notes: Lacks the linker […]; also called truncated A1
B2: vWF A1 domain variant […] ([…]) (ligand)
chain: not shown
notes: Type 2M vWD variant; molten globule; also called S1285F (2M); 51285F; not shown: 6xHis-Tag (pQE-9 vector)
B3: vWF A1 domain variant […] ([…]) (ligand)
chain: not shown
notes: Type 2M vWD variant; molten globule; also called F1369I (2M); not shown: 6xHis-Tag (pQE-9 vector)
B4: vWF A1 domain variant […] ([…]) (ligand)
chain: not shown
notes: Type 2M vWD variant; molten globule; also called E1359K (2M); not shown: 6xHis-Tag (pQE-9 vector)
B5: vWF A1 domain variant […] ([…]) (ligand)
chain: not shown
notes: Type 2M vWD variant; molten globule; also called I1425F (2M); not shown: 6xHis-Tag (pQE-9 vector)
B6: reduced and carboxyamidated (RCAM) A1 domain (vWF […]) (ligand)
chain: not shown
modifications: the cysteines of the […] disulfide bond reduced (DTT) and carboxyamidated (iodoacetamide)
notes: Molten globule model of the intermediate state; not shown: N-terminal 6xHis-Tag
B7: vWF A1 domain variant […] ([…]) (ligand)
chain: not shown
notes: Type 2M vWD variant; molten globule; also called R1374H (2M); not shown: 6xHis-Tag (pQE-9 vector)
B8: vWF A1 domain variant […] ([…]) (ligand)
chain: not shown
notes: Type 2M vWD variant; natively structured; also called G1324S (2M); not shown: 6xHis-Tag (pQE-9 vector)
B9: vWF A1 domain variant […] ([…]) (ligand)
chain: not shown
notes: Type 2B vWD variant; natively structured; also called R1306Q (2B); not shown: 6xHis-Tag (pQE-9 vector)
B10: vWF A1 domain variant […] ([…]) (ligand)
chain: not shown
notes: Type 2B vWD variant; natively structured; also called I1309V (2B); not shown: 6xHis-Tag (pQE-9 vector)
B11: vWF A1 domain variant […] ([…]) (ligand)
chain: not shown
notes: Type 2B vWD variant; molten globule; also called V1316M (2B); not shown: 6xHis-Tag (pQE-9 vector)
B12: vWF A1 domain variant […] ([…]) (ligand)
chain: not shown
notes: Type 2B vWD variant; molten globule; also called H1268D (2B); not shown: 6xHis-Tag (pQE-9 vector)
B13: vWF A1 domain variant […] ([…]) (ligand)
chain: not shown
notes: Type 2M vWD variant; native-like; also called A1437T (2M); not shown: 6xHis-Tag (pQE-9 vector)
B14: vWF A1 domain variant […] ([…]) (ligand)
chain: not shown
notes: Type 2B vWD variant; molten globule; also called V1314D (2B); not shown: 6xHis-Tag (pQE-9 vector)
B15: vWF A1 domain variant […] ([…]) (ligand)
chain: not shown
notes: Type 2B vWD variant; natively structured; also called I1372S (2B); not shown: 6xHis-Tag (pQE-9 vector)
B16: vWF A1 domain variant […] ([…]) (ligand)
chain: not shown
notes: Type 2B vWD variant; molten globule; also called P1337L (2B); not shown: 6xHis-Tag (pQE-9 vector)
B17: vWF A1 domain variant […] ([…]) (ligand)
chain: not shown
notes: Type 2B vWD variant; native-like; also called R1341Q (2B); not shown: 6xHis-Tag (pQE-9 vector)
B18: vWF A1 domain variant […] ([…]) (ligand)
chain: not shown
notes: Type 2B vWD variant; natively structured; also called R1308L (2B); H1308L (2B)

These binders were tested against T1, platelet glycoprotein Ib alpha (GPIbα) on platelets of healthy donors (human, UniProt P07359 17-652) (assay: parallel-plate flow chamber, His-tagged A1 captured on a Cu2+ chelate slide, platelets from citrated whole blood, video tracking).
T1 construct: whole, on cells; The assays use whole platelets; On platelets GPIbα is part of the GPIb-IX-V complex; also called GP1bα; GPIba
Procedure: (§1) Determination of platelet pause times. […] The shear was increased incrementally and 1 min movies were recorded at 25 frames/s in phase contrast with 232 pixel binning on a Zeiss Axiocam MRm camera attached to a Zeiss Axio Observer D1 inverted microscope. Tracking analysis was performed using Mediacybernetics ImagePro Premier§. The resulting X-Y coordinate data for each platelet track was differentiated into instantaneous velocities using a Savitzky-Golay algorithm (Savitzky:1964) with a five data point window size and a second-order polynomial implemented into a Mathamatica notebook. These platelet tracks were retained for statistical analysis if the platelet was present for at least 1 s and travelled a total distance greater than 1 lm. Distance travelled in pixels was converted to lm given the camera pixel size=6.45 μm², pixel binning, and microscope magnification=400×. Pause times were determined by the amount of time (seconds) a platelets velocity was =0±0.13 μm/s, within the noise.

**Q.** Does B1 bind?
**A.** binds

These binders were tested against T1, platelet glycoprotein Ib alpha (GPIbα) … (assay: Cu2+ chelate Vena8 biochip flow chamber, platelet pause time at 1500 s^-1).

**Q.** Does B2 bind?
**A.** no binding

**Q.** Does B3 bind?
**A.** no binding

**Q.** Does B4 bind?
**A.** no binding

**Q.** Does B5 bind?
**A.** no binding

Each binder was assayed against T1, platelet glycoprotein Ib alpha (GPIbα) … (assay: Cu2+ chelate Vena8 biochip flow chamber, distance travelled by one platelet at 1025 s^-1).
Procedure: A 5 μM concentration of protein was immobilized in the biochip and citrated whole blood was perfused at a shear rate of 800 s−1 (FIG. 11B). This perfusion was followed by TBS buffer and after red blood cells cleared the channel, the shear was decremented to 100 s−1 or incremented to 9000 s−1 every two minutes at logarithmic intervals. Surface bound platelets were allowed to equilibrate at a given shear rate for 50 s and a 60 s video at 24 frames per second was recorded and analyzed as described in the methods. The internal channel surface lacking immobilized A1 domain was completely inert to platelets.
The determination and analysis of platelet pause times and instantaneous translocation velocities over surface captured A1 and RCAM A1 was performed as previously described (Tischer:2013). Here, the inventor used the Cellix Mims Evo syringe pump controlled by VenaFluxAssay (www.cellixltd.com). […] After allowing the flow chamber to equilibrate for 50 s at each shear rate, 1 min movies were recorded at 24 frames per second in phase contrast at 200× magnification with 2×2 pixel binning on a Zeiss AxioCam Mrm camera (6.45 μm/px) attached to a Zeiss Axio Observer.D1 inverted microscope. […]

**Q.** Does B6 bind?
**A.** binds

The binders below were run against T1, platelet glycoprotein Ib alpha (GPIbα) … (assay: flow chamber, platelet pause time at 1500 s^-1 on surface-captured A1 domain).

**Q.** Does B7 bind?
**A.** no binding

**Q.** Does B8 bind?
**A.** no binding

These binders were tested against T1, platelet glycoprotein Ib alpha (GPIbα) … (assay: mean platelet pause time on His-captured A1 variant, parallel plate flow chamber, 1500 s^-1).
Procedure: as §1, with “noise. Pause times for all platelet tracks are reported as the mean of the medians. Examples of this analysis for individual platelets and for multiple platelets are provided in the Supporting Information.” for “noise.”

**Q.** For B9, which “Pause Time 1500 s^-1” value is on record?
**A.** 0.95 s

**Q.** With B10 as the binder, how does the “Pause Time 1500 s^-1” value read?
**A.** 2.14 s

**Q.** B11 was tested. Which “Pause Time 1500 s^-1” value did it give?
**A.** 2.94 s

**Q.** With B12 as the binder, how does the “Pause Time 1500 s^-1” value read?
**A.** 1.26 s

**Q.** B13 was tested. Which “Pause Time 1500 s^-1” value did it give?
**A.** 0.28 s

**Q.** Which “Pause Time 1500 s^-1” value does the source give for B14 here?
**A.** 3.53 s

**Q.** For B15, which “Pause Time 1500 s^-1” value is on record?
**A.** 1.03 s

**Q.** With B16 as the binder, how does the “Pause Time 1500 s^-1” value read?
**A.** 1.56 s

**Q.** B17 was tested. Which “Pause Time 1500 s^-1” value did it give?
**A.** 0.94 s

**Q.** How did the “Pause Time 1500 s^-1” value turn out when B18 was run?
**A.** 0.29 s
